In ChEMBL document CHEMBL4888484, “Replenishing the malaria drug discovery pipeline: Screening and hit evaluation of the MMV Hit Generation Library 1 (HGL1) against asexual blood stage Plasmodium falciparum ,using a nano luciferase reporter read-out” (2022):
Out of some 150,000 compounds screened, about 540 (0.36%) showed an effect of 50% or more. The list shows a part of the results.

test system: Plasmodium falciparum; experiment: Primary screen in NF54 nanoGlo assay, in single point, at 2uM, 72h; a lower Z score goes with more inhibition; type: functional, Erythrocyte; settings: timepoint 72 hour

SMILES	% Inhibition [%]	Z score
CO[C@H]1[C@@H]2CC[C@H]1CN(Cc1cnc(NCc3ccccc3)nc1)C2	-2	0.27
N#CCS(=O)(=O)c1ccc(Br)cc1F	-18	2.01
CC[C@H](C)[C@H](NC(=O)c1cccc(NC(=O)OC)c1)C(=O)OC(C)(C)C	-7	0.8
COc1cc(OC)cc(C(=O)Nc2cc(C)c3nc(NS(=O)(=O)c4ccc(C)cc4)sc3c2)c1	10	-1.2
CN(c1ccn(C)n1)S(=O)(=O)CCC1CCCCC1	-5	0.61
O=C(Nc1ccnn1Cc1cccc2ccccc12)C1CCC1	6	-0.71
CCC1(C(=O)NC)CCN(C(=O)c2cccc(-c3cccc(C#N)n3)c2)CC1	-14	1.99
Cc1noc(-c2cn(CCNC(=O)c3ccco3)nn2)n1	-12	1.71
COc1ccc([C@H]2N(C(=O)CN3CCCC3)CCCN2S(=O)(=O)c2ccc(C)cc2)cc1	-5	0.76
CCCNC(=O)COc1ccc2c(c1)[C@H](c1ccccc1)N(Cc1cccc(C)c1)CC2	-11	1.39
O=C1NCC2(CCN(c3nccc(N4CCC[C@H](O)C4)n3)CC2)O1	-1	0.14
O=C(COc1ccc2nc3n(c(=O)c2c1)CCC3)NCCc1nccs1	-6	0.65
Cc1csc([C@@H]2CN(C(=O)c3ccnc4c3nnn4C)CCO2)n1	-3	0.29
CC(=O)N1CCOc2c(O)cc(-c3ccc(Cl)cn3)cc2C1	-9	0.85
O=C(NCc1nc(-c2ccncc2)no1)[C@H]1CCC(F)(F)C1	-2	0.38
CC(=O)N(Cc1ccsc1)CC(F)(F)F	-7	1.12
COc1cc(C(=O)N2C[C@@H](CN3C[C@@H](C)O[C@@H](C)C3)[C@@H](CO)C2)ccn1	12	-1.59
CC[C@@H]1Oc2ccc(NC(=O)c3ccc(Cl)cc3)cc2CN(Cc2ccccc2Cl)C1=O	-10	1.28
COCCc1ccc(OS(=O)(=O)c2cccc3cncc(Br)c23)cc1	5	-0.53
COc1ccc2nc(C[C@@H]3C[C@@H](C(C)C)[C@H](CNC4CCN(C(C)=O)CC4)C=C3C)[nH]c2n1	13	-1.52
COCC(NC(=O)NC1CCCCC1OC)c1ccco1 (centres undefined)	12	-1.66
CC(C)CC1NC2(C(=O)N(Cc3ccc(F)cc3)c3ccccc32)C2C(=O)N(Cc3ccccc3)C(=O)C12 (centres undefined)	6	-0.72
O=C(Nc1nnc(COc2ccccc2)o1)c1ccccn1	0	-0.06
Cc1nc(CC(=O)N2CCn3c(C(N)=O)cnc3C2)c(C)s1	-13	1.76
O=C(Cc1ccc(CO)cc1)N1C[C@@H]2CC[C@@H](C2)C1	-7	1.24
Cc1nn(CC(C)C)c(Cl)c1CNC[C@@H](c1ccco1)N1CCCC1	-7	1.42

SMILES	% Inhibition [%]	Z score
COc1cc(Cn2c(=O)cc(C(F)(F)F)[nH]c2=O)cc(OC)c1	-34	4.03
CC(C)CN(Cc1cccc(OS(=O)(=O)c2ccc(F)cc2)c1)C(=O)C1CCC1	-4	0.67
Cc1ncnc(C)c1C(=O)N[C@H]1CC=CC[C@@H]1C(N)=O	-2	0.33
CC(C)c1nccn1CC1CCCN1CC(=O)NC(C)c1ccco1 (centres undefined)	-11	1.53
Cc1cc2n(n1)CCC(=O)N2CCCC(=O)NCc1ccccc1Cl	3	-0.26
O=C(NCc1nc(-c2cnccn2)n[nH]1)c1conc1-c1ccccc1	-4	0.86
CCc1cc(C(=O)NCc2ccc(OC)cc2)nc2cc(-c3ccccn3)nn12	3	-0.33
COc1ccccc1CN(Cc1nnc(C)s1)c1ccc2[nH]c(=O)[nH]c2c1	-13	1.77
COc1cccc(-c2nc3nc(-c4ccccc4)oc3c(=O)[nH]2)c1	4	-0.55
O=C(c1ccc2ccccc2n1)N1CCC[C@H]1c1nc2ccccc2s1	12	-1.34
Cc1ccc(Cl)cc1NC(=O)C12CCC(C)(C(=O)C1=O)C2(C)C (centres undefined)	-17	3.25
COC1CCN(C(C)(C)CNC(=O)c2c[nH]c(C(F)(F)F)c2)CC1	-12	1.57
CC(C)CCNC(=O)C(=O)Nc1ccc(Br)cc1	-5	0.59
COCC(NC(=O)NCC(O)c1cc(C)cc(C)c1)C1CC1 (centres undefined)	5	-0.68
Cc1cccc(OCc2ccc(OCC(F)(F)F)nn2)n1	24	-2.43
Cc1ccc(CN2CCn3nc(CN(C)Cc4c(C)noc4C)cc3C2)o1	-2	0.27
Cc1nc(CNC(=O)C2(c3cccc(Cl)c3)CC(C)C2)n[nH]1 (centres undefined)	0	-0.06
CCc1cc(CN(C)C(=O)N[C@H]2CC=CC[C@@H]2C(N)=O)on1	-3	0.37
CCN1CCCCC1C(=O)NCC(O)c1ccc(OC(F)F)cc1 (centres undefined)	-18	1.61
CC(=O)N[C@@H]1c2ccccc2C2(CCN(C(=O)c3cnccn3)CC2)[C@H]1OCc1ccccc1	13	-1.65
O=C(NCc1ccccn1)NC1CCCC1	16	-1.81
Cc1ccc(NCCCn2ccnc2-c2ccccc2C(=O)O)nc1	-17	1.89
CCNC(=O)N1CCC(Cc2ncc(C)n2Cc2ccc(F)cc2)CC1	6	-1.07
Cc1cccc(-n2cnnc2[C@@H]2CCN2Cc2ccccc2)c1	-15	2.13
COC(=O)COc1cc(-c2ccc(Cl)cc2)nc2ccc(NC(=O)c3cccc(F)c3)cc12	-14	2.44
CC(NC(=O)N1CCC(C)C1CO)c1cnn(Cc2ccccc2)c1 (centres undefined)	-5	0.68
